Experimental data reported in PubChem BioAssay AID485281 (National Center for Advancing Translational Sciences (NCATS), 2010).
The campaign covered roughly 350,000 compounds. About 260 (0.074%) were called active. This list was built around the results that the source calls inconclusive (neither active nor inactive); the mix of calls is not that of the screen. Calls come from the whole dose curve; as a rule, active = well fitted inhibition curve with a large enough effect; inconclusive = small, poorly fitted or top-dose-only effect; inactive = no such curve, though single readings can be large or run the other way. Potencies of inconclusive entries are doubtful fits and often do not repeat.

These compounds were tested against Ferritin light chain (Equus caballus) (UniProt P02791) (assay: qHTS Assay for Identification of Novel General Anesthetics). Conditions: apoferritin/1-aminoanthracene competitive binding, fluorescence; activity change, negative = displacement: at 77.5 µM (top of the series).
Sequence of UniProt P02791 (P02791 whole entry, looked up): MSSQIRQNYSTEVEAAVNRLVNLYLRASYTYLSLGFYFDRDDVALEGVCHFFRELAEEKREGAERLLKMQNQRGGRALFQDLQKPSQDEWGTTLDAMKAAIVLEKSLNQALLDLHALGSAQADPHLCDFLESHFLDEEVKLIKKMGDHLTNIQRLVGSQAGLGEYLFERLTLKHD
Method in brief: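 In PBS, apoferritin at 10 uM is loaded with 1-AMA from a 50% saturated solution. After 10 min of compound exposure at ambient temperature, reduced 535 nm fluorescence indicates probe displacement.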
% is set by controls: 0 for no effect and ±100 for the full control effect; potency is the fitted concentration of half-maximal effect; tags give direction and shape of the fitted curve.
Note: nearly all actives have a fitted effect of over 20% in size.

Potency, inconclusive:
CC(=O)C1=C(C)NC(SCC(=O)c2ccc(Cl)cc2)=C(C#N)C1c1ccco1 (configuration not stated) 25.1 µM [inhibitor, partial curve]
C=C(C)C1CC=C(C)/C(=N/NC(=O)CNc2ccc(OCC)cc2)C1 (configuration not stated) 39.8 µM [inhibitor, partial curve]
COc1ccc(C2C3=C(CC(C)(C)CC3=O)Oc3ncn(CC(C)C)c(=N)c32)cc1 (configuration not stated) 39.8 µM [inhibitor, partial curve]
Cc1nn(Cc2nc(-c3cccs3)no2)c(C)c1Br 35.5 µM [inhibitor, partial curve]
COc1ccc2c(=O)c3c(=O)n(Cc4ccco4)c(-c4ccc(C)cc4)nc3oc2c1 5.62 µM [inhibitor, full curve, poor fit]
COC(=O)C1=C(C)NC(=O)/C1=C\c1cc(C)n(-c2c(C)cccc2C)c1C 15.8 µM [inhibitor, partial curve]
Cc1ccccc1NC(=O)C1CCC(CNS(=O)(=O)c2ccc3c(c2)C(C)(C)C(=O)N3C)CC1 (configuration not stated) 39.8 µM [inhibitor, partial curve]
Nc1nc(Cl)cc(NCCc2ccc(O)cc2)n1 8.91 µM [inhibitor, partial curve]
NC(=O)Nc1ccc(Oc2c(F)c(F)c(F)c(F)c2F)cc1 50.1 µM [inhibitor, single point]
Cc1cnc(C(=O)OCC(=O)C23CC4CC(CC(C4)C2)C3)cn1 8.91 µM [inhibitor, partial curve]
CCOc1ccc(CCNC(=O)c2cn(C)c3ccc(S(=O)(=O)N4CCOCC4)cc3c2=O)cc1OCC 35.5 µM [inhibitor, single point]
Cc1cc(C)n(C(=O)c2ccc(NC(=O)C3COc4ccccc4O3)cc2)n1 (configuration not stated) 39.8 µM [inhibitor, partial curve]
CCOc1cc(CN2CCCC(C(=O)c3cccc(C(F)(F)F)c3)C2)ccc1O (configuration not stated) 31.6 µM [inhibitor, partial curve]
COc1ccc(-c2ccnc3nc(-n4cccc4)nn23)cc1 39.8 µM [inhibitor, single point]
O=C(N/N=C/C(Cl)=C/c1ccccc1)c1ccccn1 39.8 µM [inhibitor, single point]
COc1ccc(CN2CCNC(=O)C2CC(=O)NCCCC2CCCC2)c(C)c1C (configuration not stated) 28.2 µM [inhibitor, partial curve]
CC(C)NC(=O)NC(=O)COC(=O)/C=C/c1ccccc1[N+](=O)[O-] 39.8 µM [inhibitor, single point]
O=C(NC1CCc2ccccc21)c1cc(COc2ccc(F)cc2F)on1 (configuration not stated) 7.94 µM [inhibitor, full curve]
O=C(/C=C/c1ccccc1Cl)NCCc1ccccc1 11.2 µM [inhibitor, partial curve, poor fit]
Cc1c(Cl)cccc1NC(=O)Cc1cccs1 25.1 µM [inhibitor, partial curve]
Cc1ccc(OCC(=O)NCC(=O)n2nc(C)cc2C)cc1 44.7 µM [inhibitor, single point]
Cc1nn(C(=O)c2ccccc2)c(C)c1Sc1ccc(Cl)cc1 44.7 µM [inhibitor, single point]
O=C1c2ccccc2C(Nc2ccc3c(c2)OCCO3)N1Cc1ccccc1 (configuration not stated) 39.8 µM [inhibitor, partial curve]
Cc1ccc2c(CN3CCCc4ccccc43)cc(=O)oc2c1C 10 µM [inhibitor, partial curve]
O=C(COC(=O)CC1CC2CCC1C2)Nc1cccc(S(=O)(=O)NC2=NCCCCC2)c1 (configuration not stated) 50.1 µM [inhibitor, single point]
Cc1ccc(O)c(CNc2cnc3ccccc3c2)c1 44.7 µM [inhibitor, single point]
O=C1C2CC=CCC2C(=O)N1c1ccc(NCCc2ccc(O)cc2)c([N+](=O)[O-])c1 (configuration not stated) 8.91 µM [inhibitor, partial curve]
Cc1cc2nc(N)sc2cc1C 20 µM [inhibitor, partial curve]
Oc1c(Cl)cc(Cl)cc1/C=C/c1ccc2cccc(O)c2n1 10 µM [inhibitor, partial curve, poor fit]
O=C(CSc1nc2ccc([N+](=O)[O-])cc2[nH]1)c1ccc2ccccc2c1 6.31 µM [inhibitor, partial curve]
Cc1ccc(NC(=O)COC(=O)Cn2c(C)csc2=O)cc1C 35.5 µM [inhibitor, partial curve]
CCCCCCCCCCCCCCCC(=O)OC(CO)CO 39.8 µM [inhibitor, partial curve]
CC/C(=N\Nc1ccccc1[N+](=O)[O-])c1ccc(O)cc1 14.1 µM [inhibitor, partial curve]
CCCCCCCCCCCCCCCC(=O)OCC(O)C1OC(=O)C(O)=C1O (configuration not stated) 17.8 µM [inhibitor, partial curve]
O=C(CSc1nnc(Cc2ccccc2)o1)c1ccccc1 20 µM [inhibitor, partial curve]

Activity change, negative = displacement, inactive:
CCc1sc(C(=O)Nc2cccnc2)cc1Br -16.6%
N#Cc1nc(COc2ccc(Cl)cc2)oc1N1CCN(Cc2ccccc2)CC1 57%
CC(C)[C@H]1COC(c2cc(Cl)cc(Cl)c2)=N1 -23.4% [at 163 µM]
Cc1ccc(-c2csc3ncnc(Oc4ccc5c(C)cc(=O)oc5c4)c23)cc1 -11.5%
c1ccc(CN2CCN(CCOCCOc3ccc4c(c3)CCC4)CC2)cc1 -3.69%
O=C(COC(=O)/C=C/c1ccc(Cl)cc1)NCCc1ccccc1 -9.61%
CCCCN(C)Cc1cc(=O)oc2cc3c(cc12)CCCC3 -10.4%
